{"source": "paper PMC4336329", "about": "(PLoS ONE, 2015)", "note": "The whole screen tested about 310,000 compounds, of which about 2,200 (0.71%) showed an effect of 50% or more. The effect is printed as a negative number. Some of the results follow.", "data": [{"biological_target": "human ether-à-go-go-related gene (hERG) potassium channel (human, UniProt Q12809)", "sequence (Q12809 whole entry, looked up)": "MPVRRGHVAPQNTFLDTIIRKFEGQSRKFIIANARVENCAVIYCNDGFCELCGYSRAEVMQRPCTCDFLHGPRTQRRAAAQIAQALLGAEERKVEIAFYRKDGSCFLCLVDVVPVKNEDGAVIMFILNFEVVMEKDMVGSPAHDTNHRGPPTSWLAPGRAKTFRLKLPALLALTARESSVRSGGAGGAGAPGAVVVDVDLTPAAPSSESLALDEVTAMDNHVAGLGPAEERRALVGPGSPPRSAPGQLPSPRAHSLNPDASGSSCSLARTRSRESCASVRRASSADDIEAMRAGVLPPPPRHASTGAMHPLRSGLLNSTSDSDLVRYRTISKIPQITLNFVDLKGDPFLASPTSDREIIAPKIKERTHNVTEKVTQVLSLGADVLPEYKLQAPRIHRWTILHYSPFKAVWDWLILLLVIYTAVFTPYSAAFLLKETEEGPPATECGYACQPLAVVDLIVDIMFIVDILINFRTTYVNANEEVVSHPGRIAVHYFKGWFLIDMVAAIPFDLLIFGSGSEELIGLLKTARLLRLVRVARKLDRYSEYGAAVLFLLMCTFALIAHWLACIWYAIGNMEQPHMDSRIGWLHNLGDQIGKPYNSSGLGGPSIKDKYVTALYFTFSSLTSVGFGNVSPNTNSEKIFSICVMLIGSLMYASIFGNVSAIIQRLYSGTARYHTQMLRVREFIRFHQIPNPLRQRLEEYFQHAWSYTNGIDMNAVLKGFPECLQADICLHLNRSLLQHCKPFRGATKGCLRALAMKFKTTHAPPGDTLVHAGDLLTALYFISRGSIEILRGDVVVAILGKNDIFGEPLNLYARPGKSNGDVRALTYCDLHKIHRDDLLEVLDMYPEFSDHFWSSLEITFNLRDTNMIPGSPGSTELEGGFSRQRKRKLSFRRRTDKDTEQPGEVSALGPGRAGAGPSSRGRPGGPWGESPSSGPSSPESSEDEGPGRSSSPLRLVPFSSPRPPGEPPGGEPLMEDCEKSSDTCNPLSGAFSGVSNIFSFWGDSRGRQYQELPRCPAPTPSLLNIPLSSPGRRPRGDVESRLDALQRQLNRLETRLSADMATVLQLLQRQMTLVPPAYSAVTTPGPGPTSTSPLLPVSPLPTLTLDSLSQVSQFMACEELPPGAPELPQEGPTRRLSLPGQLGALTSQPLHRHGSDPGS", "experiment": "primary screen, population patch clamp on CHO cells stably expressing hERG", "units": {"hERG current change (%, negative = inhibition) at 1uM": "%"}, "values": [{"smiles": "C=CCN(CC=C)C(=O)COC(=O)c1n[nH]c2ccccc12", "hERG current change (%, negative = inhibition) at 1uM": 0.137}, {"smiles": "CCc1c(O)nc(SCC(=O)Nc2nc3ccccc3s2)n(-c2ccccc2)c1=O", "hERG current change (%, negative = inhibition) at 1uM": 7.33}, {"smiles": "CCCCc1nc2ccccc2c(NC(=O)CNC(C)(C)C)c1CCC.O=C(O)C(=O)O", "hERG current change (%, negative = inhibition) at 1uM": -0.207}, {"smiles": "Cc1cc(C)c(C)c(S(=O)(=O)N2CCC(C(=O)NCc3ccco3)CC2)c1C", "hERG current change (%, negative = inhibition) at 1uM": 5.06}, {"smiles": "Oc1c(/C=C/C=C/C=Nc2ccccc2)sc(=S)n1Cc1ccccc1", "hERG current change (%, negative = inhibition) at 1uM": 2.72}, {"smiles": "COc1ccc(Cl)cc1NC(=O)c1cc(-c2ccccc2O)n[nH]1", "hERG current change (%, negative = inhibition) at 1uM": 9.21}, {"smiles": "O=C(CN1CCN(c2ccccn2)CC1)N1CCc2ccccc21", "hERG current change (%, negative = inhibition) at 1uM": 10.2}, {"smiles": "COc1ccccc1CNCC(=O)Nc1ccc(N2CCOCC2)cc1.O=C(O)C(=O)O", "hERG current change (%, negative = inhibition) at 1uM": 5.38}, {"smiles": "Nc1ncncc1-c1ccc(Cl)cc1", "hERG current change (%, negative = inhibition) at 1uM": 13.1}, {"smiles": "COc1ccc(CNC(=O)Cn2cc(C(F)(F)F)ccc2=O)cc1", "hERG current change (%, negative = inhibition) at 1uM": 7.96}, {"smiles": "CN(c1cccc(NC(=O)c2ccc(C(C)(C)C)cc2)c1)S(C)(=O)=O", "hERG current change (%, negative = inhibition) at 1uM": 3.52}, {"smiles": "Cc1ccccc1NC(=O)COC(=O)C1CC2CCCC(C1)C2=O", "note": "(stereo not drawn)", "hERG current change (%, negative = inhibition) at 1uM": 9.65}, {"smiles": "COC(=O)C1=C(c2ccc(-c3ccccc3)c(F)c2)C[C@@H]2CC[C@H]1N2C(=O)NCCCOC(C)C", "hERG current change (%, negative = inhibition) at 1uM": 5.72}, {"smiles": "CCC(Oc1ccccc1)C(=O)Nc1nnc(S(=O)(=O)N2CCCCC2)s1", "note": "(stereo not drawn)", "hERG current change (%, negative = inhibition) at 1uM": 8.82}, {"smiles": "O=C(/C=C/c1c(Cl)cccc1Cl)Nc1ccncc1", "hERG current change (%, negative = inhibition) at 1uM": 2.03}, {"smiles": "COc1cccc2cc(C(=O)NCc3ccco3)c(=O)oc12", "hERG current change (%, negative = inhibition) at 1uM": 12.2}, {"smiles": "COc1ccc2nnc(-c3ccc(C(F)(F)F)cc3)n2n1", "hERG current change (%, negative = inhibition) at 1uM": 12}, {"smiles": "Cc1cc(NC(=O)/C(C#N)=C/c2ccc(-c3ccc(SC(F)F)cc3)o2)n(-c2ccccc2)n1", "hERG current change (%, negative = inhibition) at 1uM": 5.35}, {"smiles": "COc1cccc(OC)c1OCCCCCCN1CCN(C)CC1.Cl", "hERG current change (%, negative = inhibition) at 1uM": 8.22}, {"smiles": "C1CCC2(CC1)C1=C(CCCC1)Nc1nnnn12", "hERG current change (%, negative = inhibition) at 1uM": 3.72}, {"smiles": "COc1ccc(NC(=O)C(CCSC)NC(N)=O)cc1NS(=O)(=O)c1ccc(F)cc1", "note": "(stereo not drawn)", "hERG current change (%, negative = inhibition) at 1uM": 12.5}, {"smiles": "CC(=O)NC1=NN(C(C)=O)C(C)(c2ccc(C)cc2)S1", "note": "(stereo not drawn)", "hERG current change (%, negative = inhibition) at 1uM": 15.4}, {"smiles": "COc1ccc(C(=O)C2CCCN(Cc3cn[nH]c3-c3ccc(F)cc3)C2)cc1OC", "note": "(stereo not drawn)", "hERG current change (%, negative = inhibition) at 1uM": -25.9}, {"smiles": "Brc1cc2c(cc1/C=N/Nc1nc(N3CCOCC3)nc(N3CCOCC3)n1)OCO2", "hERG current change (%, negative = inhibition) at 1uM": 9.44}, {"smiles": "COC(=O)c1sccc1N(C)S(C)(=O)=O", "hERG current change (%, negative = inhibition) at 1uM": 14.9}, {"smiles": "COC(=O)CSc1nc(C)cc(N2CCOCC2)n1", "hERG current change (%, negative = inhibition) at 1uM": 1.51}, {"smiles": "O=C1CC(=O)Nc2cc(S(=O)(=O)N3CCN(c4cccc(C(F)(F)F)c4)CC3)ccc2N1", "hERG current change (%, negative = inhibition) at 1uM": 5.15}, {"smiles": "CC1CCCN(CCCNC(=O)C2CC(=O)N(c3ccc(F)c(Cl)c3)C2)C1", "note": "(stereo not drawn)", "hERG current change (%, negative = inhibition) at 1uM": 5.66}, {"smiles": "N#CCC(=O)Nc1ccc(C(=O)Nc2cccc(S(N)(=O)=O)c2)cc1", "hERG current change (%, negative = inhibition) at 1uM": 16.3}, {"smiles": "CC(C)c1ccc(-n2nc3ccc(N)cc3n2)cc1", "hERG current change (%, negative = inhibition) at 1uM": 4.47}, {"smiles": "COC(=O)c1sccc1NC(=O)CC1C(=O)NCCN1C(=O)c1ccc(N(C)C)cc1", "note": "(stereo not drawn)", "hERG current change (%, negative = inhibition) at 1uM": 12.7}, {"smiles": "O=C(O)COc1ccccc1/C=C1\\SC(=S)N(/N=C/c2ccccc2O)C1=O", "hERG current change (%, negative = inhibition) at 1uM": 22.4}, {"smiles": "Cc1oc2ccc(O)cc2c1C(=O)OC(C)C", "hERG current change (%, negative = inhibition) at 1uM": 8.39}, {"smiles": "CCCNc1c(NC(=O)c2cccs2)c(=O)oc2ccccc12", "hERG current change (%, negative = inhibition) at 1uM": 14.1}, {"smiles": "CCOC(=O)c1c(C)[nH]c(C(=O)N(C)Cc2cccc(OC)c2OC)c1C", "hERG current change (%, negative = inhibition) at 1uM": 15.4}, {"smiles": "O=C(COc1ccccc1)Nc1ccc2c(c1)nc1n2CCSC1", "hERG current change (%, negative = inhibition) at 1uM": -3.52}, {"smiles": "COC(=O)CCC(=O)OC1(C)C(=O)C=C2C=C(c3ccsc3)OC=C2C1=O", "note": "(stereo not drawn)", "hERG current change (%, negative = inhibition) at 1uM": 7.46}, {"smiles": "Cc1cc(C(=O)Nc2sc3c(c2C#N)CCC3)no1", "hERG current change (%, negative = inhibition) at 1uM": 15.3}, {"smiles": "Cc1sc2nc(CSc3nnnn3-c3ccc(Cl)cc3)[nH]c(=O)c2c1C", "hERG current change (%, negative = inhibition) at 1uM": 8.71}, {"smiles": "Cc1ccc(C(=O)N/C(=C/c2ccco2)C(=O)N2CCCCC2)cc1", "hERG current change (%, negative = inhibition) at 1uM": 4.07}, {"smiles": "CCc1ccc(NC(=O)CSc2nnc(C)c(=O)n2N)cc1", "hERG current change (%, negative = inhibition) at 1uM": 13.4}, {"smiles": "Cc1cccc(-n2c(C)nc3ccsc3c2=O)c1", "hERG current change (%, negative = inhibition) at 1uM": 16.9}, {"smiles": "O=C(COc1cccnc1[N+](=O)[O-])Nc1cccc2ccccc12", "hERG current change (%, negative = inhibition) at 1uM": 10.7}, {"smiles": "Cc1nc2c(=O)n(-c3cccc(C(F)(F)F)c3)nc(C)c2s1", "hERG current change (%, negative = inhibition) at 1uM": 11.7}, {"smiles": "CCC(NS(=O)(=O)c1ccc(OC)cc1)C(=O)NCCC1=CCCCC1", "note": "(stereo not drawn)", "hERG current change (%, negative = inhibition) at 1uM": 14.6}, {"smiles": "CCCN1CCN(S(=O)(=O)c2ccc(OC)c(Br)c2)CC1", "hERG current change (%, negative = inhibition) at 1uM": 11.3}, {"smiles": "O=C(Cn1nnc2ccccc21)NNC(=S)NC1CCCCC1", "hERG current change (%, negative = inhibition) at 1uM": 12.4}, {"smiles": "CCC(C(=O)NC1CCCC1)N(C(=O)c1snc(C(N)=O)c1N)c1ccc(OC)cc1", "note": "(stereo not drawn)", "hERG current change (%, negative = inhibition) at 1uM": 17}, {"smiles": "Cc1nc2oc3c(NCc4ccccn4)ncnc3c2c2c1COC(C)(C)C2", "hERG current change (%, negative = inhibition) at 1uM": 4.58}, {"smiles": "COc1ccc(C(=O)C2CCCN(Cc3ccc(C#CCCO)cc3)C2)cc1F", "note": "(stereo not drawn)", "hERG current change (%, negative = inhibition) at 1uM": -2.54}, {"smiles": "Cc1ccc(CNS(=O)(=O)c2ccc(-n3cnnn3)c(C)c2)cc1", "hERG current change (%, negative = inhibition) at 1uM": 7.87}, {"smiles": "CN1CCN(c2c[nH]c(=O)[nH]c2=O)CC1", "hERG current change (%, negative = inhibition) at 1uM": -4.58}, {"smiles": "CC1=C(C)CC(C(=O)NNC(=O)c2cccc(Cl)c2)C(C(=O)O)C1", "note": "(stereo not drawn)", "hERG current change (%, negative = inhibition) at 1uM": 11.1}, {"smiles": "Cc1ccc(NC(=O)CSc2nnc(CNC(=O)c3ccco3)o2)cc1Cl", "hERG current change (%, negative = inhibition) at 1uM": 5.5}, {"smiles": "CCN1C(=O)C(O)(CC(=O)c2ccc(-n3cccc3)cc2)c2ccccc21", "note": "(stereo not drawn)", "hERG current change (%, negative = inhibition) at 1uM": 0.704}, {"smiles": "NC(=O)CSc1nnc(NC(=O)c2ccc(S(=O)(=O)N3CCCCC3)cc2)s1", "hERG current change (%, negative = inhibition) at 1uM": -26.2}, {"smiles": "CCCCn1c(=O)[nH]c(=O)c2c1nc(-c1ccc(OC)c(Br)c1)n2CC(C)C", "hERG current change (%, negative = inhibition) at 1uM": 9.52}]}]}
